In the supplement of paper PMC10369915:
Some of the results follow. Cut-off read from the data, not from the text of the source: active = 3.2 or more and inactive = the rest. The signal is at background level for most entries.

What was measured:
Experiment in all cases: enrichment score (SH2-bound / input frequency) (ratio); bacterial display of known human phosphotyrosine sites (pTyr-Var adds point mutants) read by sequencing; higher = stronger binding; tyrosines were phosphorylated by kinases first
Details in all cases: peptide library: pTyr-Var
SHP2 C-SH2 domain E139D = target: SHP2 C-SH2 domain E139D
[1] = target: SHP2 C-SH2 domain wild-type
SHP2 N-SH2 domain L43F = target: SHP2 N-SH2 domain L43F
SHP2 N-SH2 domain T42A = target: SHP2 N-SH2 domain T42A
SHP2 N-SH2 domain T52S = target: SHP2 N-SH2 domain T52S
[2] = target: SHP2 N-SH2 domain wild-type
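Note: displayed peptides selected on beads carrying the immobilized SH2 domain, with library peptides lacking any tyrosine serving as negative controls.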

Question: How did the enrichment score (SHP2 C-SH2 domain E139D) turn out when EKKKKYMLPLD [DNM2_Y563_E560K] was run?
Answer: inactive: 0.597

Question: And the enrichment score [1]?
Answer: inactive: 0.878

Question: And the enrichment score (SHP2 N-SH2 domain L43F)?
Answer: inactive: 0.755

Question: What about the enrichment score (SHP2 N-SH2 domain T42A) of the same binder?
Answer: inactive: 0.638

Question: What about the enrichment score (SHP2 N-SH2 domain T52S) of the same binder?
Answer: inactive: 0.677

Question: What about the enrichment score [2] of the same binder?
Answer: inactive: 0.808

Question: How did the enrichment score (SHP2 C-SH2 domain E139D) turn out when FFTEEYVRDHP [DOCK2_Y1555] was run?
Answer: inactive: 1.16

Question: What about the enrichment score [1] of the same binder?
Answer: inactive: 0.99

Question: What about the enrichment score (SHP2 N-SH2 domain L43F) of the same binder?
Answer: inactive: 0.847

Question: And the enrichment score (SHP2 N-SH2 domain T42A)?
Answer: inactive: 1.26

Question: And the enrichment score (SHP2 N-SH2 domain T52S)?
Answer: inactive: 1.02

Question: And the enrichment score [2]?
Answer: inactive: 1.32

Question: LQRVQYDLQKA [DSP_Y1512] was tested. Which enrichment score (SHP2 C-SH2 domain E139D) did it give?
Answer: inactive: 0.803

Question: And the enrichment score [1]?
Answer: inactive: 1.11

Question: What about the enrichment score (SHP2 N-SH2 domain L43F) of the same binder?
Answer: inactive: 0.81

Question: What about the enrichment score (SHP2 N-SH2 domain T42A) of the same binder?
Answer: inactive: 0.873

Question: What about the enrichment score (SHP2 N-SH2 domain T52S) of the same binder?
Answer: inactive: 0.727

Question: And the enrichment score [2]?
Answer: inactive: 0.602

Question: SLQAHYDTPRS [DOK7_Y405_R402Q] was tested. Which enrichment score (SHP2 C-SH2 domain E139D) did it give?
Answer: inactive: 0.743

Question: And the enrichment score [1]?
Answer: inactive: 0.536

Question: And the enrichment score (SHP2 N-SH2 domain L43F)?
Answer: inactive: 0.631

Question: And the enrichment score (SHP2 N-SH2 domain T42A)?
Answer: inactive: 0.527

Question: What about the enrichment score (SHP2 N-SH2 domain T52S) of the same binder?
Answer: inactive: 0.636

Question: What about the enrichment score [2] of the same binder?
Answer: inactive: 0.732

Question: What does the source list for FFIMMYTGSSV [DNAJC13_Y1131_N1135S]?
Answer: enrichment score (SHP2 C-SH2 domain E139D): inactive: 0.736; enrichment score [1]: inactive: 1.14; enrichment score (SHP2 N-SH2 domain L43F): inactive: 1.1; enrichment score (SHP2 N-SH2 domain T42A): inactive: 0.909; enrichment score (SHP2 N-SH2 domain T52S): inactive: 1.05; enrichment score [2]: inactive: 1.16

Question: Which enrichment score (SHP2 C-SH2 domain E139D) does the source give for PRAGVYPEKDQ [DNM2_Y626_L621P] here?
Answer: inactive: 0.881

Question: What about the enrichment score [1] of the same binder?
Answer: inactive: 0.799

Question: What about the enrichment score (SHP2 N-SH2 domain L43F) of the same binder?
Answer: inactive: 0.769

Question: What about the enrichment score (SHP2 N-SH2 domain T42A) of the same binder?
Answer: inactive: 0.914

Question: And the enrichment score (SHP2 N-SH2 domain T52S)?
Answer: inactive: 0.491

Question: What about the enrichment score [2] of the same binder?
Answer: inactive: 0.832

Question: With LKTNWYNNGKD [DNMT3B_Y404_C403W] as the binder, how does the enrichment score (SHP2 C-SH2 domain E139D) read?
Answer: inactive: 1.1

Question: What about the enrichment score [1] of the same binder?
Answer: inactive: 0.884

Question: And the enrichment score (SHP2 N-SH2 domain L43F)?
Answer: inactive: 0.728

Question: And the enrichment score (SHP2 N-SH2 domain T42A)?
Answer: inactive: 0.719

Question: And the enrichment score (SHP2 N-SH2 domain T52S)?
Answer: inactive: 0.868

Question: What about the enrichment score [2] of the same binder?
Answer: inactive: 1.38

Question: With RLPNGYGLAYR [DLK1_Y262_S260N] as the binder, how does the enrichment score (SHP2 C-SH2 domain E139D) read?
Answer: inactive: 0.645

Question: And the enrichment score [1]?
Answer: inactive: 0.596

Question: And the enrichment score (SHP2 N-SH2 domain L43F)?
Answer: inactive: 0.636

Question: And the enrichment score (SHP2 N-SH2 domain T42A)?
Answer: inactive: 0.615

Question: What about the enrichment score (SHP2 N-SH2 domain T52S) of the same binder?
Answer: inactive: 0.689

Question: And the enrichment score [2]?
Answer: inactive: 0.841

Question: Which enrichment score (SHP2 C-SH2 domain E139D) does the source give for EQSGSYIWVLA [DLG1_Y895_P899L] here?
Answer: inactive: 0.655

Question: And the enrichment score [1]?
Answer: inactive: 0.579

Question: And the enrichment score (SHP2 N-SH2 domain L43F)?
Answer: inactive: 0.646

Question: What about the enrichment score (SHP2 N-SH2 domain T42A) of the same binder?
Answer: inactive: 0.597

Question: And the enrichment score (SHP2 N-SH2 domain T52S)?
Answer: inactive: 0.558

Question: And the enrichment score [2]?
Answer: inactive: 0.664

Question: Which results are given for TSIGNYYKPWF [DHCR24_Y299_N294T]?
Answer: enrichment score (SHP2 C-SH2 domain E139D): inactive: 0.896; enrichment score [1]: inactive: 1.88; enrichment score (SHP2 N-SH2 domain L43F): active: 5.3; enrichment score (SHP2 N-SH2 domain T42A): active: 5.56; enrichment score (SHP2 N-SH2 domain T52S): active: 7.09; enrichment score [2]: inactive: 2.14

Question: SHKELYKWFTS [DYNC1H1_Y3051_E3048K] was tested. Which enrichment score (SHP2 C-SH2 domain E139D) did it give?
Answer: inactive: 1.39

Question: And the enrichment score [1]?
Answer: inactive: 1.51

Question: What about the enrichment score (SHP2 N-SH2 domain L43F) of the same binder?
Answer: inactive: 1.22

Question: And the enrichment score (SHP2 N-SH2 domain T42A)?
Answer: inactive: 1.62

Question: What about the enrichment score (SHP2 N-SH2 domain T52S) of the same binder?
Answer: inactive: 1.8

Question: What about the enrichment score [2] of the same binder?
Answer: inactive: 1.44

Question: SAASGYSDVTD [DTX2_Y425_T421A] was tested. Which enrichment score (SHP2 C-SH2 domain E139D) did it give?
Answer: inactive: 0.328

Question: What about the enrichment score [1] of the same binder?
Answer: inactive: 0.709

Question: And the enrichment score (SHP2 N-SH2 domain L43F)?
Answer: inactive: 0.249

Question: And the enrichment score (SHP2 N-SH2 domain T42A)?
Answer: inactive: 0.416

Question: And the enrichment score (SHP2 N-SH2 domain T52S)?
Answer: inactive: 0.319

Question: What about the enrichment score [2] of the same binder?
Answer: inactive: 0.419

Question: With DNPAKYFILES [DPP10_Y512] as the binder, how does the enrichment score (SHP2 C-SH2 domain E139D) read?
Answer: inactive: 0.877

Question: And the enrichment score [1]?
Answer: inactive: 0.618

Question: What about the enrichment score (SHP2 N-SH2 domain L43F) of the same binder?
Answer: inactive: 0.765

Question: What about the enrichment score (SHP2 N-SH2 domain T42A) of the same binder?
Answer: inactive: 0.832

Question: What about the enrichment score (SHP2 N-SH2 domain T52S) of the same binder?
Answer: inactive: 0.92

Question: What about the enrichment score [2] of the same binder?
Answer: inactive: 0.886

Question: For RILENYGADID [DNAH5_Y596_L591R], which enrichment score (SHP2 C-SH2 domain E139D) is on record?
Answer: inactive: 1.19

Question: And the enrichment score [1]?
Answer: inactive: 0.826

Question: And the enrichment score (SHP2 N-SH2 domain L43F)?
Answer: inactive: 0.994

Question: And the enrichment score (SHP2 N-SH2 domain T42A)?
Answer: inactive: 0.653

Question: What about the enrichment score (SHP2 N-SH2 domain T52S) of the same binder?
Answer: inactive: 0.85

Question: What about the enrichment score [2] of the same binder?
Answer: inactive: 1.32

Question: With GDNNIYVTKII [DLG1_Y349_S347N] as the binder, how does the enrichment score (SHP2 C-SH2 domain E139D) read?
Answer: inactive: 0.771

Question: What about the enrichment score [1] of the same binder?
Answer: inactive: 0.74

Question: And the enrichment score (SHP2 N-SH2 domain L43F)?
Answer: inactive: 0.69

Question: What about the enrichment score (SHP2 N-SH2 domain T42A) of the same binder?
Answer: inactive: 0.58

Question: And the enrichment score (SHP2 N-SH2 domain T52S)?
Answer: inactive: 0.574

Question: And the enrichment score [2]?
Answer: inactive: 0.966

Question: YLGRNYLETLM [DUS3L_Y610_D609N] was tested. Which enrichment score (SHP2 C-SH2 domain E139D) did it give?
Answer: inactive: 1.26

Question: What about the enrichment score [1] of the same binder?
Answer: inactive: 1.5

Question: What about the enrichment score (SHP2 N-SH2 domain L43F) of the same binder?
Answer: inactive: 1.39

Question: What about the enrichment score (SHP2 N-SH2 domain T42A) of the same binder?
Answer: inactive: 1.5

Question: What about the enrichment score (SHP2 N-SH2 domain T52S) of the same binder?
Answer: inactive: 1.36

Question: And the enrichment score [2]?
Answer: inactive: 1.17

Question: For CDTKLYTSVPN [DNTTIP2_Y427_A430V], which enrichment score (SHP2 C-SH2 domain E139D) is on record?
Answer: inactive: 0.798

Question: And the enrichment score [1]?
Answer: inactive: 0.723

Question: And the enrichment score (SHP2 N-SH2 domain L43F)?
Answer: inactive: 0.837

Question: And the enrichment score (SHP2 N-SH2 domain T42A)?
Answer: inactive: 0.575

Question: What about the enrichment score (SHP2 N-SH2 domain T52S) of the same binder?
Answer: inactive: 0.795

Question: What about the enrichment score [2] of the same binder?
Answer: inactive: 0.895

Question: How did the enrichment score (SHP2 C-SH2 domain E139D) turn out when DAAEDYAEGVR [DHODH_Y194] was run?
Answer: inactive: 0.527

Question: What about the enrichment score [1] of the same binder?
Answer: inactive: 0.409

Question: And the enrichment score (SHP2 N-SH2 domain L43F)?
Answer: inactive: 0.462

Question: What about the enrichment score (SHP2 N-SH2 domain T42A) of the same binder?
Answer: inactive: 0.473

Question: And the enrichment score (SHP2 N-SH2 domain T52S)?
Answer: inactive: 0.531

Question: And the enrichment score [2]?
Answer: inactive: 0.564

Question: How did the enrichment score (SHP2 C-SH2 domain E139D) turn out when LILENYGADID [DNAH5_Y596] was run?
Answer: inactive: 0.7

Question: What about the enrichment score [1] of the same binder?
Answer: inactive: 0.541

Question: What about the enrichment score (SHP2 N-SH2 domain L43F) of the same binder?
Answer: inactive: 0.967

Question: And the enrichment score (SHP2 N-SH2 domain T42A)?
Answer: inactive: 0.575

Question: What about the enrichment score (SHP2 N-SH2 domain T52S) of the same binder?
Answer: inactive: 0.743

Question: What about the enrichment score [2] of the same binder?
Answer: inactive: 0.75
